Laboratory results reported in PubChem BioAssay (Tox21).
Inconclusive results, whose numbers are uncertain, are shown with a selection of clear calls. For some of these results: Where the call is inconclusive, the potency comes from a doubtful curve fit. Activity calls are given as the source filed them. Unless noted, calls follow the shape of the dose curve; as a rule, active = well fitted curve in the direction sought with a large enough effect in the repeat runs; inconclusive = weak or mixed curves; inactive = no such curve, though single readings can be large; an effect the other way counts as inactive or inconclusive.

What was measured:
[1] = qHTS assay to identify small molecule antagonists of the thyroid receptor (TR) signaling pathway (AID 743065); also: % is scaled to controls: 0 for no effect and ±100 for the full control effect; nearly all actives have a fitted effect of over 55% in size
Summary of the method: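 Antagonism measured as loss of luciferase signal in GH3 cells stably carrying a TRE-luciferase reporter, co-treated with compound and T3 (1 nM final) for 23.5 h at 37 C. Viability was read in the same well by CellTiter-Fluor.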

[2] = biological target: Aryl hydrocarbon receptor (Homo sapiens) (UniProt P35869); assay: qHTS assay to identify small molecule that activate the aryl hydrocarbon receptor (AhR) signaling pathway (AID 743085); also: potency is read from the fitted curve at half-maximal effect; nearly all actives have a fitted effect of over 15% in size
Summary of the method: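 Luminescence (ONE-Glo) from a dioxin-responsive-element luciferase reporter in HG2L7.5c1 HepG2 cells after 24 hr compound exposure at 37C; viability measured by CellTiter-Fluor fluorescence beforehand.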

[3] = qHTS assay for small molecule agonists of the antioxidant response element (ARE) signaling pathway (AID 743202; active = well fitted activation curve with a large enough effect in the signal ratio in the repeat runs, not every such curve was filed as active; inconclusive = weak or mixed curves, or effect the other way; inactive = no such curve, though single readings can be large or run the other way; the % refers to the signal ratio; also: potency is read from the fitted curve at half-maximal effect); settings: HepG2 ARE-bla reporter, beta-lactamase FRET, 16 h; activation: at 73.3 µM (top of the series) unless noted
Summary of the method: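 Quantitative high-throughput format in HepG2 cells bearing an integrated ARE-beta-lactamase reporter. Compound exposure lasted 16 h at 37 C, and fluorescence was read 2 h after adding LiveBLAzer B/G substrate at room temperature.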

[4] = biological target: Peroxisome proliferator-activated receptor delta (Homo sapiens) (UniProt Q03181); assay: qHTS assay to identify small molecule antagonists of the peroxisome proliferator-activated receptor delta (PPARd) signaling pathway (AID 743215; active = well fitted inhibition curve with a large enough effect in the signal ratio in the repeat runs, not every such curve was filed as active; inconclusive = weak or mixed curves, or effect the other way; inactive = no such curve, though single readings can be large or run the other way; the % refers to the signal ratio;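 also: cells stimulated with agonist L165041 at 300 nM final during compound exposure; % is scaled to controls: 0 for no effect and ±100 for the full control effect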); settings: HEK293H PPARd-UAS-bla, beta-lactamase FRET ratio, antagonist, 17 h; ratio activity, negative = inhibition: at 62 µM (top of the series) unless noted
Summary of the method: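 PPARd UAS-bla HEK293H cells were pre-incubated 5 h at 37 C, then given test compounds in DMSO plus agonist L165041 (300 nM final). After 17 h at 37 C, beta-lactamase FRET substrate was added; fluorescence read after 2 h at room temperature.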

[5] = biological target: Vitamin D3 receptor (Homo sapiens) (UniProt P11473); assay: qHTS assay to identify small molecule agonists of the vitamin D receptor (VDR) signaling pathway (AID 743222; calls by dose curve; also: % is scaled to controls: 0 for no effect and ±100 for the full control effect); settings: HEK293T VDR-UAS-bla, beta-lactamase FRET ratio, 16 h; activation: at 63.5 µM (top of the series) unless noted
Summary of the method: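 VDR-bla cells were plated 4 h at 37C/5% CO2, then exposed to compounds in DMSO for 16 h. After LiveBLAzer B/G FRET substrate addition and 2 h at room temperature, beta-lactamase reporter fluorescence was read.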

[6] = biological target: Vitamin D3 receptor (Homo sapiens) (UniProt P11473); assay: qHTS assay to identify small molecule antagonists of the vitamin D receptor (VDR) signaling pathway (AID 743223; active = well fitted inhibition curve with a large enough effect in the signal ratio in the repeat runs, not every such curve was filed as active; inconclusive = weak or mixed curves, or effect the other way; inactive = no such curve, though single readings can be large or run the other way; the % refers to the signal ratio; also: potency is read from the fitted curve at half-maximal effect); settings: VDR-UAS-bla HEK293T, beta-lactamase FRET ratio, 16 h; activity change, negative = inhibition: at 61 µM (top of the series) unless noted
Summary of the method: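 Antagonist mode: compound added to VDR-bla cells alongside agonist 1alpha,25-dihydroxyvitamin D3 (3 nM final), incubation 16 h at 37C. Read-out is LiveBLAzer FRET fluorescence, 2 h at room temperature.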

[7] = qHTS assay to identify small molecule antagonists of the estrogen related receptor (ERR) signaling pathway from Tox21 library - cell viability counter screen (AID 1224834); also: potency is read from the fitted curve at half-maximal effect; nearly all actives have a fitted effect of over 30% in size
Summary of the method: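 ERR reporter cells were plated 6 h before compound addition, then exposed to test compounds in DMSO for 17.5 h at 37 C. Viability was read as CellTiter-Fluor fluorescence after a 30-minute incubation at 37 C.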

[8] = qHTS assay to identify small molecule agonists of the constitutive androstane receptor (CAR) signaling pathway - cell viability counter screen (AID 1224836); also: potency is read from the fitted curve at half-maximal effect; nearly all actives have a fitted effect of over 45% in size
Summary of the method: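 Cell viability multiplexed with the CAR agonist screen: CellTiter-Fluor fluorescence after 23 hr at 37 C. HepG2-CYP2B6-hCAR cells got compounds at 15 concentrations with PK11195 at 0.75 uM final.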

[9] = qHTS assay to identify small molecule antagonists of the estrogen related receptor (ERR) signaling pathway from Tox21 library (AID 1224848); also: potency is read from the fitted curve at half-maximal effect; nearly all actives have a fitted effect of over 50% in size
Summary of the method: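 Antagonist-mode screen of the Tox21 10K library in an NTP-provided ERR reporter cell line; 18 h compound exposure at 37 C, luminescence measured with ONE-Glo.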

[10] = qHTS RealTime-Glo MT Cell Viability Assay in HEK293 cells - 32 hour (AID 1224868); also: potency is read from the fitted curve at half-maximal effect; nearly all actives have a fitted effect of over 50% in size
Summary of the method: (§1)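 Reads taken at 0, 8, 16, 24, 32 and 40 h from the same wells. HEK293 cells (600/well) carried RealTime-Glo reagents from seeding, with compound added after a 5 h settle at 37 C.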

[11] = qHTS RealTime-Glo MT Cell Viability Assay in HEK293 cells - 16 hour (AID 1224872); also: potency is read from the fitted curve at half-maximal effect; nearly all actives have a fitted effect of over 50% in size
Summary of the method: as §1

[12] = qHTS RealTime-Glo MT Cell Viability Assay in HEK293 cells - 40 hour (AID 1224874); settings: RealTime-Glo luminescence; max response: stronger effect = lower value; also: potency is read from the fitted curve at half-maximal effect; nearly all actives have a fitted effect of over 50% in size
Summary of the method: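 HEK293 cells mixed with RealTime-Glo reagents (NanoLuc plus cell-permeant prosubstrate) at 600 cells/well, preincubated 5 h at 37 C/5% CO2, then given 23 nL compound in DMSO. Nonlytic luminescence from viable cells was read at 0, 8, 16, 24, 32 and 40 h.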

[13] = qHTS RealTime-Glo MT Cell Viability Assay in HEK293 cells - 24 hour (AID 1224886)
Summary of the method: as §1

[14] = qHTS assay to identify small molecule antagonists of the estrogen receptor alpha (ER-alpha) signaling pathway using the BG1 cell line in the presence of 0.1 nM 17-beta-estradiol - cell viability counter screen (AID 1259241); also: potency is read from the fitted curve at half-maximal effect; nearly all actives have a fitted effect of over 40% in size
Summary of the method: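 Cytotoxicity counter-screen: live-cell protease activity measured by fluorescence (30 min reagent step) in the same wells. Cells were VM7Luc4E2 with endogenous ER-alpha and ERE-driven luciferase, treated 22 hr at 37C alongside 0.1 nM 17beta-estradiol final.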

[15] = biological target: Estrogen receptor (Homo sapiens) (UniProt P03372); assay: qHTS assay to identify small molecule antagonists of the estrogen receptor alpha (ER-alpha) signaling pathway using the BG1 cell line in the presence of 0.1 nM 17-beta-estradiol (AID 1259244)
Summary of the method: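 VM7Luc4E2 cells (endogenous full-length ER-alpha, stable 4xERE-luciferase) were grown 5 days in phenol red-free medium with charcoal-stripped FBS, then exposed 22 h at 37C to compounds plus 0.1 nM (final) 17beta-estradiol; ONE-Glo luminescence read-out.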

[16] = qHTS assay to identify small molecule antagonists of the sonic hedgehog signaling (Shh) pathway (AID 1259369; calls by dose curve; also: potency is read from the fitted curve at half-maximal effect; nearly all actives have a fitted effect of over 45% in size)
Summary of the method: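 NIH/3T3-derived 3T3Gli1-Luc cells with stably integrated Gli1-Luc reporter were preincubated 4hr at 37 C, then given compounds in DMSO plus Shh conditioned medium and incubated 24hr. Firefly luciferase luminescence read after 30min reagent at room temperature.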

[17] = qHTS assay to identify small molecule agonists of the androgen receptor (AR) signaling pathway in the presence of an antagonist - cell viability counter screen (AID 1259379); also: potency is read from the fitted curve at half-maximal effect; nearly all actives have a fitted effect of over 25% in size
Summary of the method: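 MDA-kb2 human breast carcinoma cells (stable MMTV-luciferase, AR/GR responsive) were seeded 3,000 cells/well, pre-incubated 5 hr at 37C without CO2, then given 3.0uM nilutamide and compounds at 15 concentrations for 16 hr. Viability was read by CellTiter-Fluor fluorescence.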

[18] = qHTS assay to identify small molecule antagonists of the progesterone receptor (PR) signaling pathway - cell viability counter screen (AID 1346798)
Summary of the method: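 Cytotoxicity read as CellTiter-Glo luminescence (30 min, room temperature) in the same wells as the beta-lactamase readout. HEK293T PR-UAS-bla cells in charcoal-stripped 2% FBS received compound and R5020, then 16 h at 37C, 5% CO2.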

[19] = qHTS assay to identify small molecule agonists of the progesterone receptor (PR) signaling pathway - cell viability counter screen (AID 1346799; calls by dose curve; also: potency is read from the fitted curve at half-maximal effect; nearly all actives have a fitted effect of over 45% in size)
Summary of the method: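 Cytotoxicity measured by CellTiter-Glo luminescence (30 min, RT) in the same wells as the PR beta-lactamase agonist read. Those HEK293T cells had 16 h compound treatment at 37 C in 2% charcoal-stripped FBS medium.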

[20] = Human pregnane X receptor (PXR) small molecule agonists, qHTS cell viability counter screen (AID 1346977)
Summary of the method: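 Same-well viability read: CellTiter-Fluor added after 23 hr compound exposure, fluorescence measured 1 hr later. Cells were PXR-Luc HepG2 seeded at 2,000/well in 5% charcoal-stripped FBS medium, rested 5 hr before dosing at 37 C.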

[21] = biological target: Nuclear receptor subfamily 1 group I member 2 (Homo sapiens) (UniProt O75469); assay: Human pregnane X receptor (PXR) small molecule agonists, qHTS assay (AID 1346982); also: potency is read from the fitted curve at half-maximal effect; nearly all actives have a fitted effect of over 35% in size
Summary of the method: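 PXR-Luc HepG2 cells (CYP3A4 promoter-driven luciferase) were seeded in medium with 5% charcoal-stripped FBS, left 5 hr at 37 C, then exposed to compounds in DMSO for 24 hr. Luminescence was read after ONE-Glo addition.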

[22] = biological target: Cytochrome P450 2D6 (Homo sapiens) (UniProt P10635); assay: Cytochrome P450 Family 2 Subfamily D Member 6 (CYP2D6) small molecule antagonists: luciferase reporter qHTS assay (AID 1671196)
Summary of the method: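 CYP2D6 enzyme–substrate mix was held with compound for 10 min at room temperature, then NADPH regeneration solution was added and the reaction ran 1 h at room temperature. Luciferin product was detected by luminescence after 20 min with detection reagent.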
Tags tell the direction and shape of the fitted curve or compound fluorescence and quenching.

Chain of UniProt P11473 (P11473 whole entry, looked up): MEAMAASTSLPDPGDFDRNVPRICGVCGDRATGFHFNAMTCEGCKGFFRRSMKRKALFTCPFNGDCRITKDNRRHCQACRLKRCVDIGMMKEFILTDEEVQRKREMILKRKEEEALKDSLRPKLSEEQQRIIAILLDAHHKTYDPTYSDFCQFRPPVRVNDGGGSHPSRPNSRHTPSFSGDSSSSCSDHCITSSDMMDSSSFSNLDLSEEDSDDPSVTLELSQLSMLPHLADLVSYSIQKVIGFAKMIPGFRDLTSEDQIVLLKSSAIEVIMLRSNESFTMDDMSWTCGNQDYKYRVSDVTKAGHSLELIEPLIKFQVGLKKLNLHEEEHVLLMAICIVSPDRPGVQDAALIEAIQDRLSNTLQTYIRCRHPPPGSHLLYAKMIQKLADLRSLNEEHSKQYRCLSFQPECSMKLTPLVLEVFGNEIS
Chain of UniProt O75469 (O75469 whole entry, looked up): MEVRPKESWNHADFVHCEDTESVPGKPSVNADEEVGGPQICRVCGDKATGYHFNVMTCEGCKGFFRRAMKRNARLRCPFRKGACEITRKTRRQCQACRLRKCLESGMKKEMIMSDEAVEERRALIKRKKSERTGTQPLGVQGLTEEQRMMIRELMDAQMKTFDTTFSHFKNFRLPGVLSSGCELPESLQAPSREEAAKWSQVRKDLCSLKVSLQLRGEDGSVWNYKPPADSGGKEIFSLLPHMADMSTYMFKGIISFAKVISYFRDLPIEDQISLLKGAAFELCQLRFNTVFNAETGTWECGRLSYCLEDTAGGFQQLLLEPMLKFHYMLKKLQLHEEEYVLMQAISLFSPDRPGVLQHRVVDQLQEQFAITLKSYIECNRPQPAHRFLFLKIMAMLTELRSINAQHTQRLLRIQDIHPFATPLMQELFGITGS
Chain of UniProt P03372 (P03372 whole entry, looked up): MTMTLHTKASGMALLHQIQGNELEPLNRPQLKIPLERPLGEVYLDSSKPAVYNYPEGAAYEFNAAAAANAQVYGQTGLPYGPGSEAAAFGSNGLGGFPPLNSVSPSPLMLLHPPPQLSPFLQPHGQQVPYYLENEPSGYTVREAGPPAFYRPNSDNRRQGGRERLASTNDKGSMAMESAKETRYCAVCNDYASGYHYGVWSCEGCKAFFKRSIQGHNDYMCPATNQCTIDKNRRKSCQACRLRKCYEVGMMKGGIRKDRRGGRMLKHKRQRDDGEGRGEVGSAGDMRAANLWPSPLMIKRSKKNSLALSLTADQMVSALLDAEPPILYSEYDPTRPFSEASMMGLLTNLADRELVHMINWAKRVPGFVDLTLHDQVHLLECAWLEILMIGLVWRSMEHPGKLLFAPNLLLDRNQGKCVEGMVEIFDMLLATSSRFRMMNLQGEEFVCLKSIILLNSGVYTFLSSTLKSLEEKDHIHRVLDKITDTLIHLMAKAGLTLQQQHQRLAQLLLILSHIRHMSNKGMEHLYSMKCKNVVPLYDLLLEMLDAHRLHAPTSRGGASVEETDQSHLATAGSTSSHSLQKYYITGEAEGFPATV
Chain of UniProt Q03181 (Q03181 whole entry, looked up): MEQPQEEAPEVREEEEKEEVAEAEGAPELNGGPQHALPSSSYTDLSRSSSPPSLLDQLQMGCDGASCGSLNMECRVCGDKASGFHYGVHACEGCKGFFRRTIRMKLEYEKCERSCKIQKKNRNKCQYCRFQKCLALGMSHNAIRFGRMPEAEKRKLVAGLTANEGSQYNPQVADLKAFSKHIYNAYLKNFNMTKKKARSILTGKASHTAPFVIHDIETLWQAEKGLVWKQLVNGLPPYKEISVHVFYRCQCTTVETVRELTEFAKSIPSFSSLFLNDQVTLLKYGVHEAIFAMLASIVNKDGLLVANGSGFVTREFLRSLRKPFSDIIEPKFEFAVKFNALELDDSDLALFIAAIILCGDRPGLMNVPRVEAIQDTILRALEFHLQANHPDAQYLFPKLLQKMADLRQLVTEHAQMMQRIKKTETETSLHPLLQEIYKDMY
Chain of UniProt P35869 (P35869 whole entry, looked up): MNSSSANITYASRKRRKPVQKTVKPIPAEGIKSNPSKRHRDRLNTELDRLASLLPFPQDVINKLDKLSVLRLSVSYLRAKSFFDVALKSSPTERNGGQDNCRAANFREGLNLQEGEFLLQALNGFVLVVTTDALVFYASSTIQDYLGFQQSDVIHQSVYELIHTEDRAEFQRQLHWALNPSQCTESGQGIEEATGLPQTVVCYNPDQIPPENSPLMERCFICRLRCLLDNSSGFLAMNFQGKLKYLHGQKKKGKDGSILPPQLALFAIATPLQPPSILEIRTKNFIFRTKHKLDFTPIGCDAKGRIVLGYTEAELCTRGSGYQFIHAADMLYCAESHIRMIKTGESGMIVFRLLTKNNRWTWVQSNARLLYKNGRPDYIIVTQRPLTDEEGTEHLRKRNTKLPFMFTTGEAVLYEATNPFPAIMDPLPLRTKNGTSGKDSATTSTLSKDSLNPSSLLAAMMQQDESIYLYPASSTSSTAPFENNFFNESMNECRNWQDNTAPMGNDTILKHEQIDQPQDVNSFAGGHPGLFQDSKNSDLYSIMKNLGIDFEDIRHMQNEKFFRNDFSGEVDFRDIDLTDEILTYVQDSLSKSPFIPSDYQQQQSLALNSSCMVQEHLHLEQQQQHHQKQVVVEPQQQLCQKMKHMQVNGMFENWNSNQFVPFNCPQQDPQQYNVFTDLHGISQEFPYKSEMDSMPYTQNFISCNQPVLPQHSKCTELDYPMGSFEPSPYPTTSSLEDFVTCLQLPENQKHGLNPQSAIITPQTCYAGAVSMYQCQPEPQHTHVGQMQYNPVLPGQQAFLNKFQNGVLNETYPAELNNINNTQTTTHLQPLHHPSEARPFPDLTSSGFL
Chain of UniProt P10635 (P10635 whole entry, looked up): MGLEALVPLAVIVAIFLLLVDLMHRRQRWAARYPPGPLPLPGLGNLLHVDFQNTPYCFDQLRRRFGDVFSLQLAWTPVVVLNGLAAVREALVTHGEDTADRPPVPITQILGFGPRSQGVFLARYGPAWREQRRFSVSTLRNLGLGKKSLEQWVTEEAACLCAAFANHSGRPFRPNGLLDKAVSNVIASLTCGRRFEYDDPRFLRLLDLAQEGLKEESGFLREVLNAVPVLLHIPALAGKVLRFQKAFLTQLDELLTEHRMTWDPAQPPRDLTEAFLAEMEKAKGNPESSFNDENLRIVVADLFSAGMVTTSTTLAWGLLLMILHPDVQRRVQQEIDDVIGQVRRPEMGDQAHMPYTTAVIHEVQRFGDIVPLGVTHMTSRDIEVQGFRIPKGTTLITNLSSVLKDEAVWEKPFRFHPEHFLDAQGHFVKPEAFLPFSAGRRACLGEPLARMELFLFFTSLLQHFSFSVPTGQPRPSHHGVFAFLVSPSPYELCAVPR

COc1cc2nc(N(C)CCCNC(=O)C3CCCO3)nc(N)c2cc1OC (configuration not stated)
active: Potency [3] 23.7 µM | Potency [9] 9.44 µM | Potency [15] 23.7 µM | Potency [16] 13.3 µM
inactive: Potency [1] | Potency [4]
inconclusive: Potency [2] 5.69 µM [activator, partial curve, poor fit] | activation [5] -6.46% | Potency [6] 0.477 µM [activator, full curve, poor fit] | Potency [7] 21.1 µM [cytotoxic, partial curve] | Potency [8] 13.3 µM [cytotoxic, full curve] | Potency [10] 6.01 µM [cytotoxic, partial curve] | Potency [11] 10.7 µM [cytotoxic, partial curve] | Potency [12] 4.77 µM [cytotoxic, partial curve] | Potency [13] 6.74 µM [cytotoxic, partial curve] | Potency [14] 33.5 µM [cytotoxic, partial curve, poor fit] | Potency [17] 21.1 µM [cytotoxic, partial curve] | Potency [18] 29.8 µM [rising, partial curve, poor fit] | Potency [19] 21.1 µM [rising, partial curve] | Potency [20] 26.6 µM [cytotoxic, partial curve] | Potency [21] 23.7 µM [activator, partial curve] | Potency [22] 15.5 µM [inhibitor, partial curve]
